Source: patent publication US20230242658A1 (published 2023)

Assays:
[1] = target: T1, human 4-1BB on CHO-K1 cells (human, UniProt Q07011 24-255); assay: FACS, CHO-K1 cells expressing human 4-1BB
T1 construct: whole, on cells; also called CHO-K1/hu 4-1BB; CHO-K1/hu4-1BB

[2] = target: T2, cynomolgus monkey 4-1BB on CHO-K1 cells (cynomolgus monkey); assay: FACS, CHO-K1 cells expressing cynomolgus monkey 4-1BB
T2 construct: whole, on cells; also called CHO-K1/cyno 4-1BB; CHO-K1/cyno4-1BB

[3] = target: T3, histidine-labeled human 4-1BB protein (human, UniProt Q07011 24-186); assay: SPR Biacore, antibody on Protein A, antigen as analyte, 1:1 fit
T3 construct: also called Human 4-1BB protein antigen (histidine-labeled); human 4-1BB protein and his tag (Acrobiosystem, #41B-H5227); not shown: histidine tag

EC50 [1]: 0.947 nM
EC50 [2]: 1.06 nM
Kd [3]: 0.155 nM
koff [3]: 0.00022 s⁻¹
kon [3]: 1.42e+06 M⁻¹ s⁻¹
B1: PR000448 (antibody, human IgG4 S228P, kappa)
heavy: QVQLQQWGAGLLKPSETLSLTCAVYGGSFSGYYWSWIRQPPGKGLEWIGEIQHSGSTDSNPSLKGRVTFSVDTSKNQFSLKLNSVTAADTAVYYCARLTGPFDYWGQGTLVTVSSASTKGPSVFPLAPCSRSTSESTAALGCLVKDYFPEPVTVSWNSGALTSGVHTFPAVLQSSGLYSLSSVVTVPSSSLGTKTYTCNVDHKPSNTKVDKRV[in this place human IgG4 Fc with S228P (EU numbers)]
light: EIVMTQSPATLSVSPGERATLSCRASQSISSILAWYQQKPGQAPRLLIYGASTRATGIPARFSGSGSGTEFTLTISSLQSEDFAVYYCQQYYNWPLTFGGGTKVEIKRTVAAPSVFIFPPSDEQLKSGTASVVCLLNNFYPREAKVQWKVDNALQSGNSQESVTEQDSKDSTYSLSSTLTLSKADYEKHKVYACEVTHQGLSSPVTKSFNRGEC
notes: Variant of PR000197 (VH:N52Q; VL:F2I), human IgG4 S228P
